# Assay results reported in the supplement of paper PMC9542798.
# Columns and labels:
# Assay in all cases: minimum inhibitory concentration
# Streptomycin = compound: CN[C@@H]1[C@H](O[C@H]2[C@H](O[C@H]3[C@H](O)[C@@H](O)[C@H](N=C(N)N)[C@@H](O)[C@@H]3N=C(N)N)O[C@@H](C)[C@]2(O)C=O)O[C@@H](CO)[C@H](O)[C@H]1O [Streptomycin]
# Protocol: (§1)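 Broth microdilution MIC per ISO 10932 on precoated VetMIC Lact-1 plates (tylosin, vancomycin and ampicillin plates prepared manually) against lactic acid bacteria and bifidobacteria isolates. Plates were read visually after 48 h anaerobic incubation (bifidobacteria 72 h; enterococci and staphylococci 24 h aerobic) at species-specific temperatures of 30 or 37 °C. Values prefixed with < or > are outside the tested dilution range.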
# Ampicillin = compound: CC1(C)S[C@@H]2[C@H](NC(=O)[C@H](N)c3ccccc3)C(=O)N2[C@H]1C(=O)O [Ampicillin]
# Protocol: as §1
# Tetracycline = compound: CN(C)[C@@H]1C(O)=C(C(N)=O)C(=O)[C@@]2(O)C(O)=C3C(=O)c4c(O)cccc4[C@@](C)(O)[C@H]3C[C@@H]12 [Tetracycline]
# Protocol: as §1
# Erythromycin = compound: CC[C@H]1OC(=O)[C@H](C)[C@@H](O[C@H]2C[C@@](C)(OC)[C@@H](O)[C@H](C)O2)[C@H](C)[C@@H](O[C@@H]2O[C@H](C)C[C@H](N(C)C)[C@H]2O)[C@](C)(O)C[C@@H](C)C(=O)[C@H](C)[C@@H](O)[C@]1(C)O [Erythromycin]
# Protocol: as §1
# Clindamycin = compound: CCC[C@@H]1C[C@@H](C(=O)N[C@@H]([C@H]2O[C@H](SC)[C@H](O)[C@@H](O)[C@H]2O)[C@H](C)Cl)N(C)C1 [Clindamycin]
# Protocol: as §1
# Chloramphenicol = compound: O=C(N[C@H](CO)[C@H](O)c1ccc([N+](=O)[O-])cc1)C(Cl)Cl [Chloramphenicol]
# Protocol: as §1
# Gentamicin = compound: CNC(C)C1CCC(N)C(OC2C(N)CC(N)C(OC3OCC(C)(O)C(NC)C3O)C2O)O1 [Gentamicin]
# Protocol: as §1
# Kanamycin = compound: NC[C@H]1O[C@H](O[C@H]2[C@H](O)[C@@H](O[C@H]3O[C@H](CO)[C@@H](O)[C@H](N)[C@H]3O)[C@H](N)C[C@@H]2N)[C@H](O)[C@@H](O)[C@@H]1O [Kanamycin]
# Protocol: as §1
# Neomycin = compound: NC[C@@H]1O[C@H](O[C@H]2[C@@H](O)[C@H](O[C@@H]3[C@@H](O)[C@H](N)C[C@H](N)[C@H]3O[C@H]3O[C@H](CN)[C@@H](O)[C@H](O)[C@H]3N)O[C@@H]2CO)[C@H](N)[C@@H](O)[C@@H]1O [Neomycin]
# Protocol: as §1
# 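Note: isolates derived from commercial starter, protective, probiotic or feed-additive cultures, from fermented products, from human gut mucosa or feces, and from human milk or colostrum.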
Test System,minimum inhibitory concentration (Streptomycin),minimum inhibitory concentration (Ampicillin),minimum inhibitory concentration (Tetracycline),minimum inhibitory concentration (Erythromycin),minimum inhibitory concentration (Clindamycin),minimum inhibitory concentration (Chloramphenicol),minimum inhibitory concentration (Gentamicin),minimum inhibitory concentration (Kanamycin),minimum inhibitory concentration (Neomycin)
Lacticaseibacillus paracasei IM1102 (strain group: non-starter strains),16 µg/mL,2 µg/mL,1 µg/mL,0.12 µg/mL,0.25 µg/mL,4 µg/mL,2 µg/mL,32 µg/mL,4 µg/mL
Limosilactobacillus fermentum IM691 (strain group: human intestinal mucosa or faeces),32 µg/mL,0.5 µg/mL,16 µg/mL,0.5 µg/mL,0.06 µg/mL,8 µg/mL,2 µg/mL,64 µg/mL,2 µg/mL
Lentilactobacillus parabuchneri IM1357 (strain group: non-starter strains),4 µg/mL,0.5 µg/mL,32 µg/mL,0.5 µg/mL,0.06 µg/mL,4 µg/mL,< 0.5 µg/mL,4 µg/mL,< 0.5 µg/mL
Lacticaseibacillus casei IM806 (strain group: probiotic strains),16 µg/mL,1 µg/mL,2 µg/mL,0.25 µg/mL,4 µg/mL,8 µg/mL,1 µg/mL,32 µg/mL,2 µg/mL
Lactiplantibacillus plantarum IM1127 (strain group: non-starter strains),32 µg/mL,2 µg/mL,16 µg/mL,0.5 µg/mL,0.25 µg/mL,8 µg/mL,4 µg/mL,128 µg/mL,4 µg/mL
Lacticaseibacillus rhamnosus IM1292 (strain group: non-starter strains),8 µg/mL,1 µg/mL,1 µg/mL,0.25 µg/mL,1 µg/mL,8 µg/mL,4 µg/mL,64 µg/mL,8 µg/mL
Lacticaseibacillus casei IM574 (strain group: probiotic strains),32 µg/mL,1 µg/mL,1 µg/mL,0.5 µg/mL,0.5 µg/mL,8 µg/mL,4 µg/mL,128 µg/mL,8 µg/mL
Lactiplantibacillus plantarum IM1021 (strain group: non-starter strains),64 µg/mL,1 µg/mL,8 µg/mL,0.5 µg/mL,0.5 µg/mL,8 µg/mL,4 µg/mL,128 µg/mL,4 µg/mL
Limosilactobacillus reuteri IM109 (strain group: feed additives),16 µg/mL,2 µg/mL,8 µg/mL,0.5 µg/mL,0.12 µg/mL,8 µg/mL,1 µg/mL,64 µg/mL,1 µg/mL
Lacticaseibacillus paracasei IM1286 (strain group: non-starter strains),32 µg/mL,2 µg/mL,1 µg/mL,0.12 µg/mL,0.12 µg/mL,4 µg/mL,4 µg/mL,64 µg/mL,16 µg/mL
Lactiplantibacillus plantarum IM1008 (strain group: non-starter strains),32 µg/mL,4 µg/mL,1 µg/mL,0.25 µg/mL,0.5 µg/mL,4 µg/mL,8 µg/mL,128 µg/mL,16 µg/mL
Lacticaseibacillus paracasei IM1280 (strain group: non-starter strains),16 µg/mL,1 µg/mL,1 µg/mL,0.12 µg/mL,0.25 µg/mL,4 µg/mL,4 µg/mL,64 µg/mL,4 µg/mL
Limosilactobacillus fermentum IM137 (strain group: human intestinal mucosa or faeces),16 µg/mL,0.5 µg/mL,4 µg/mL,0.5 µg/mL,0.06 µg/mL,4 µg/mL,2 µg/mL,64 µg/mL,8 µg/mL
Limosilactobacillus fermentum IM690 (strain group: human intestinal mucosa or faeces),64 µg/mL,0.5 µg/mL,16 µg/mL,0.5 µg/mL,0.06 µg/mL,8 µg/mL,2 µg/mL,128 µg/mL,4 µg/mL
Lacticaseibacillus paracasei IM1289 (strain group: non-starter strains),16 µg/mL,1 µg/mL,1 µg/mL,0.12 µg/mL,0.06 µg/mL,4 µg/mL,2 µg/mL,64 µg/mL,4 µg/mL
Pediococcus pentosaceus IM1150 (strain group: non-starter strains),128 µg/mL,16 µg/mL,32 µg/mL,0.5 µg/mL,0.06 µg/mL,4 µg/mL,8 µg/mL,256 µg/mL,4 µg/mL
Lactiplantibacillus plantarum IM1333 (strain group: non-starter strains),16 µg/mL,1 µg/mL,16 µg/mL,1 µg/mL,2 µg/mL,4 µg/mL,1 µg/mL,32 µg/mL,1 µg/mL
Pediococcus pentosaceus IM1126 (strain group: non-starter strains),128 µg/mL,4 µg/mL,32 µg/mL,0.5 µg/mL,0.12 µg/mL,4 µg/mL,8 µg/mL,256 µg/mL,8 µg/mL
